This note sets out measurements from the supplement of paper PMC10369915.

Some of the results follow. Cut-off read from the data, not from the text of the source: active = 3.2 or more and inactive = the rest. The signal is at background level for most entries.
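Note: displayed peptides selected on beads carrying the immobilized SH2 domain, with library peptides lacking any tyrosine serving as negative controls.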

The target of the first test is SHP2 C-SH2 domain E139D. As to the kind of experiment: enrichment score (SH2-bound / input frequency) (ratio); bacterial display of known human phosphotyrosine sites (pTyr-Var adds point mutants) read by sequencing; higher = stronger binding; tyrosines were phosphorylated by kinases first. The note with it: peptide library: pTyr-Var.
On to ADQLDYIKALN [HPRT1_Y81_L78Q], for which the enrichment score is inactive: 0.516.

As for QDEHGYISLCF [HSPB1_Y133_R136L], the enrichment score was inactive: 0.788.

In the case of NTGLEYIKFTW [HRH1_Y386_D385E], the enrichment score is inactive: 1.26.

Consider AGLEEYSAMRD [HRAS_Y64_Q61L], for which the enrichment score is inactive: 0.658.

For SSWPDYVRPLP [HSPB1_Y54_G53D], the enrichment score is inactive: 1.12.

Turning to LNYNEYFRDLN [HPRT1_Y198_D194N], the enrichment score was inactive: 1.18.

On to MFNPMYALFRT [HUWE1_Y4078], for which the enrichment score is inactive: 1.45.

Consider LDFNEYFRNLN [HPRT1_Y198_D201N_YF], for which the enrichment score was inactive: 0.975.

For LDYNEYVRDLN [HPRT1_Y198_F199V], the enrichment score is inactive: 1.1.

Turning to LIGRGYDDPEV [HSPA9_Y128_R127G], the enrichment score was inactive: 1.07.

For the molecule LDFNEYFRDLN [HPRT1_Y198_YF], the enrichment score is inactive: 1.07.

For the molecule MKNQKYGRIIM [HSD17B4_Y143_K140N], the enrichment score was inactive: 1.24.

For the molecule DTKAFYPEEIS [HSPA1A_Y115_E110D], the enrichment score is inactive: 0.696.

For the molecule RVYRDYVLKSA [HTATIP2_Y111_D108Y], the enrichment score is inactive: 1.25.

For CFTGKYTLPPG [HSPB1_Y142_R140G], the enrichment score is inactive: 0.962.

For EGDGVYTLNDE [HP_Y125_N129D], the enrichment score is inactive: 0.379.

For the molecule QDEHGYIFRCF [HSPB1_Y133_S135F], the enrichment score was inactive: 0.306.

With LIGRRCDDPEV [HSPA9_Y128_Y128C], the enrichment score was inactive: 0.394.

On to LDYNEYFRNLN [HPRT1_Y198_D201N], for which the enrichment score was inactive: 0.92.

The next test addresses SHP2 C-SH2 domain wild-type. The description is as above. The note with it: peptide library: pTyr-Var.
As to ADQLDYIKALN [HPRT1_Y81_L78Q], the enrichment score was inactive: 0.529.

As for QDEHGYISLCF [HSPB1_Y133_R136L], the enrichment score is inactive: 1.27.

On to NTGLEYIKFTW [HRH1_Y386_D385E], for which the enrichment score is inactive: 1.63.

Regarding AGLEEYSAMRD [HRAS_Y64_Q61L], the enrichment score is inactive: 0.607.

Consider SSWPDYVRPLP [HSPB1_Y54_G53D], for which the enrichment score was inactive: 0.991.

With LNYNEYFRDLN [HPRT1_Y198_D194N], the enrichment score is inactive: 1.19.

Consider MFNPMYALFRT [HUWE1_Y4078], for which the enrichment score was inactive: 1.76.

Turning to LDFNEYFRNLN [HPRT1_Y198_D201N_YF], the enrichment score is inactive: 1.3.

LDYNEYVRDLN [HPRT1_Y198_F199V]: the enrichment score was inactive: 0.854.

On to LIGRGYDDPEV [HSPA9_Y128_R127G], for which the enrichment score was inactive: 0.705.

Regarding LDFNEYFRDLN [HPRT1_Y198_YF], the enrichment score was inactive: 1.01.

Regarding MKNQKYGRIIM [HSD17B4_Y143_K140N], the enrichment score is inactive: 1.13.

Consider DTKAFYPEEIS [HSPA1A_Y115_E110D], for which the enrichment score was inactive: 0.808.

Regarding RVYRDYVLKSA [HTATIP2_Y111_D108Y], the enrichment score was inactive: 0.944.

Turning to CFTGKYTLPPG [HSPB1_Y142_R140G], the enrichment score was inactive: 1.11.

For the molecule EGDGVYTLNDE [HP_Y125_N129D], the enrichment score is inactive: 0.474.

As for QDEHGYIFRCF [HSPB1_Y133_S135F], the enrichment score was inactive: 0.58.

For LIGRRCDDPEV [HSPA9_Y128_Y128C], the enrichment score is inactive: 0.384.

Take LDYNEYFRNLN [HPRT1_Y198_D201N]: the enrichment score is inactive: 0.839.

The target in another test is SHP2 N-SH2 domain L43F. The description is as above. The note with it: peptide library: pTyr-Var.
With ADQLDYIKALN [HPRT1_Y81_L78Q], the enrichment score is inactive: 0.724.

QDEHGYISLCF [HSPB1_Y133_R136L]: the enrichment score is inactive: 1.32.

NTGLEYIKFTW [HRH1_Y386_D385E]: the enrichment score was inactive: 2.69.

Regarding AGLEEYSAMRD [HRAS_Y64_Q61L], the enrichment score was inactive: 0.626.

On to SSWPDYVRPLP [HSPB1_Y54_G53D], for which the enrichment score is inactive: 0.929.

With LNYNEYFRDLN [HPRT1_Y198_D194N], the enrichment score was inactive: 1.09.

As for MFNPMYALFRT [HUWE1_Y4078], the enrichment score is inactive: 1.48.

As for LDFNEYFRNLN [HPRT1_Y198_D201N_YF], the enrichment score is inactive: 0.777.

With LDYNEYVRDLN [HPRT1_Y198_F199V], the enrichment score was inactive: 1.18.

In the case of LIGRGYDDPEV [HSPA9_Y128_R127G], the enrichment score is inactive: 1.11.

LDFNEYFRDLN [HPRT1_Y198_YF]: the enrichment score was inactive: 1.11.

MKNQKYGRIIM [HSD17B4_Y143_K140N]: the enrichment score is inactive: 1.22.

With DTKAFYPEEIS [HSPA1A_Y115_E110D], the enrichment score was inactive: 0.798.

As to RVYRDYVLKSA [HTATIP2_Y111_D108Y], the enrichment score is inactive: 0.842.

In the case of CFTGKYTLPPG [HSPB1_Y142_R140G], the enrichment score is inactive: 1.29.

As to EGDGVYTLNDE [HP_Y125_N129D], the enrichment score is inactive: 0.462.

On to QDEHGYIFRCF [HSPB1_Y133_S135F], for which the enrichment score was inactive: 0.641.

In the case of LIGRRCDDPEV [HSPA9_Y128_Y128C], the enrichment score is inactive: 0.201.

As for LDYNEYFRNLN [HPRT1_Y198_D201N], the enrichment score was inactive: 0.617.

For a further test, the target named is SHP2 N-SH2 domain T42A. The description is as above. The note with it: peptide library: pTyr-Var.
Turning to ADQLDYIKALN [HPRT1_Y81_L78Q], the enrichment score was inactive: 0.709.

Consider QDEHGYISLCF [HSPB1_Y133_R136L], for which the enrichment score is inactive: 1.59.

Consider NTGLEYIKFTW [HRH1_Y386_D385E], for which the enrichment score is active: 4.48.

AGLEEYSAMRD [HRAS_Y64_Q61L]: the enrichment score was inactive: 0.525.

Take SSWPDYVRPLP [HSPB1_Y54_G53D]: the enrichment score was inactive: 0.861.

For LNYNEYFRDLN [HPRT1_Y198_D194N], the enrichment score is inactive: 1.21.

In the case of MFNPMYALFRT [HUWE1_Y4078], the enrichment score is inactive: 1.36.

Turning to LDFNEYFRNLN [HPRT1_Y198_D201N_YF], the enrichment score is inactive: 0.756.

As to LDYNEYVRDLN [HPRT1_Y198_F199V], the enrichment score is inactive: 0.712.

With LIGRGYDDPEV [HSPA9_Y128_R127G], the enrichment score was inactive: 0.769.

In the case of LDFNEYFRDLN [HPRT1_Y198_YF], the enrichment score was inactive: 1.06.

Consider MKNQKYGRIIM [HSD17B4_Y143_K140N], for which the enrichment score is inactive: 1.05.

In the case of DTKAFYPEEIS [HSPA1A_Y115_E110D], the enrichment score was inactive: 0.582.

For RVYRDYVLKSA [HTATIP2_Y111_D108Y], the enrichment score was inactive: 1.02.

As for CFTGKYTLPPG [HSPB1_Y142_R140G], the enrichment score is inactive: 0.738.

Take EGDGVYTLNDE [HP_Y125_N129D]: the enrichment score is inactive: 0.536.

For QDEHGYIFRCF [HSPB1_Y133_S135F], the enrichment score is inactive: 0.53.

On to LIGRRCDDPEV [HSPA9_Y128_Y128C], for which the enrichment score was inactive: 0.391.

Consider LDYNEYFRNLN [HPRT1_Y198_D201N], for which the enrichment score is inactive: 0.813.

The target in another test is SHP2 N-SH2 domain T52S. Described as above. The following applies: peptide library: pTyr-Var.
ADQLDYIKALN [HPRT1_Y81_L78Q]: the enrichment score was inactive: 0.584.

QDEHGYISLCF [HSPB1_Y133_R136L]: the enrichment score was inactive: 1.34.

With NTGLEYIKFTW [HRH1_Y386_D385E], the enrichment score was active: 3.4.

Regarding AGLEEYSAMRD [HRAS_Y64_Q61L], the enrichment score was inactive: 0.659.

Turning to SSWPDYVRPLP [HSPB1_Y54_G53D], the enrichment score was inactive: 0.905.

Turning to LNYNEYFRDLN [HPRT1_Y198_D194N], the enrichment score was inactive: 1.49.

As for MFNPMYALFRT [HUWE1_Y4078], the enrichment score was inactive: 1.4.

Turning to LDFNEYFRNLN [HPRT1_Y198_D201N_YF], the enrichment score was inactive: 1.

Take LDYNEYVRDLN [HPRT1_Y198_F199V]: the enrichment score was inactive: 0.871.

As for LIGRGYDDPEV [HSPA9_Y128_R127G], the enrichment score was inactive: 1.15.

As to LDFNEYFRDLN [HPRT1_Y198_YF], the enrichment score was inactive: 1.04.

Regarding MKNQKYGRIIM [HSD17B4_Y143_K140N], the enrichment score is inactive: 0.898.

Take DTKAFYPEEIS [HSPA1A_Y115_E110D]: the enrichment score is inactive: 0.714.

As for RVYRDYVLKSA [HTATIP2_Y111_D108Y], the enrichment score is inactive: 1.37.

CFTGKYTLPPG [HSPB1_Y142_R140G]: the enrichment score is inactive: 0.99.

In the case of EGDGVYTLNDE [HP_Y125_N129D], the enrichment score was inactive: 0.584.

For the molecule QDEHGYIFRCF [HSPB1_Y133_S135F], the enrichment score is inactive: 0.674.

As for LIGRRCDDPEV [HSPA9_Y128_Y128C], the enrichment score was inactive: 0.532.

For the molecule LDYNEYFRNLN [HPRT1_Y198_D201N], the enrichment score was inactive: 0.915.

A further test concerns the target SHP2 N-SH2 domain wild-type. The description is as above. The note with it: peptide library: pTyr-Var.
As for ADQLDYIKALN [HPRT1_Y81_L78Q], the enrichment score is inactive: 0.817.

QDEHGYISLCF [HSPB1_Y133_R136L]: the enrichment score was inactive: 1.85.

NTGLEYIKFTW [HRH1_Y386_D385E]: the enrichment score was inactive: 1.39.

For AGLEEYSAMRD [HRAS_Y64_Q61L], the enrichment score was inactive: 0.737.

As for SSWPDYVRPLP [HSPB1_Y54_G53D], the enrichment score is inactive: 0.98.

On to LNYNEYFRDLN [HPRT1_Y198_D194N], for which the enrichment score was inactive: 1.03.

In the case of MFNPMYALFRT [HUWE1_Y4078], the enrichment score was inactive: 1.46.

With LDFNEYFRNLN [HPRT1_Y198_D201N_YF], the enrichment score is inactive: 0.782.

For LDYNEYVRDLN [HPRT1_Y198_F199V], the enrichment score was inactive: 0.563.

Turning to LIGRGYDDPEV [HSPA9_Y128_R127G], the enrichment score is inactive: 0.897.

On to LDFNEYFRDLN [HPRT1_Y198_YF], for which the enrichment score is inactive: 0.935.

Take MKNQKYGRIIM [HSD17B4_Y143_K140N]: the enrichment score is inactive: 0.89.

Consider DTKAFYPEEIS [HSPA1A_Y115_E110D], for which the enrichment score is inactive: 0.743.

For the molecule RVYRDYVLKSA [HTATIP2_Y111_D108Y], the enrichment score is inactive: 1.15.

As for CFTGKYTLPPG [HSPB1_Y142_R140G], the enrichment score is inactive: 1.1.

Turning to EGDGVYTLNDE [HP_Y125_N129D], the enrichment score was inactive: 0.508.

For QDEHGYIFRCF [HSPB1_Y133_S135F], the enrichment score is inactive: 0.765.

In the case of LIGRRCDDPEV [HSPA9_Y128_Y128C], the enrichment score was inactive: 0.708.

Take LDYNEYFRNLN [HPRT1_Y198_D201N]: the enrichment score was inactive: 1.04.
